# Measurements taken from PubChem BioAssay AID686979 (National Center for Advancing Translational Sciences (NCATS), 2013).
# Screen size: about 420,000 compounds; about 50,000 (12%) were called active. Inconclusive means that the source gave no clear call. Such entries were picked first, then a sample of the others. Calls come from the whole dose curve; as a rule, active = well fitted inhibition curve with a large enough effect; inconclusive = small, poorly fitted or top-dose-only effect; inactive = flat fitted curve, though single readings scatter. Potencies of inconclusive entries are left out as doubtful fits.
# Assay: qHTS for Inhibitors of human tyrosyl-DNA phosphodiesterase 1 (TDP1): qHTS in cells in presence of CPT; note: nearly all actives have a fitted effect of over 55% in size
# Conditions: chicken DT40 Tdp1-/-;hTDP1 cells + 20 nM CPT, ATP luminescence, 48 h; activity change, negative = growth inhibition: at 46.2 µM (top of the series)
# Procedure, shortened: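 Chicken DT40 Tdp1-/- cells complemented with human TDP1, 400 cells/well, exposed to compounds plus 20 nM camptothecin for at least 48 h at 37 C; viability read as ATP content by CellTiter-Glo luminescence.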
# % is set by controls: 0 for no effect and ±100 for the full control effect; potency is the fitted concentration of half-maximal effect; tags give direction and shape of the fitted curve.
SMILES,Potency,"activity change, negative = growth inhibition"
COc1ccc(C2CC(=O)c3cc(-c4nc(-c5ccc(Cl)cc5)c(C)s4)c(=O)[nH]c3C2)cc1 (configuration not stated),"inconclusive [inhibitor, full curve]",–
Cc1ccc(-n2c(SCc3cccc(F)c3)nc3[nH]ncc3c2=O)cc1C,active: 20.6 µM,–
Cc1ccc(OC(C)C(=O)Nc2ccccc2C(=O)N2CCOCC2)cc1 (configuration not stated),inactive,–
CN(C)Cc1ccccc1-c1ccc2ncnc(N3CCOCC3)c2c1,"inconclusive [inhibitor, single point]",–
CC(=O)N1CCc2c(sc(NC(=O)Cc3ccc(C)cc3C)c2C#N)C1,"inconclusive [inhibitor, single point]",–
CCCc1c(C(=O)N/N=C(\C)c2cc(C)sc2C)nnn1-c1nonc1N,"inconclusive [inhibitor, partial curve]",–
CC12CCC(=O)N1C(C(=O)Nc1cc(C(F)(F)F)ccc1N1CCOCC1)CS2 (configuration not stated),"inconclusive [inhibitor, partial curve]",–
COC(=O)c1ccc2c(=O)n(CCCCCC(=O)NCc3ccc(Cl)cc3)c(=O)[nH]c2c1,"inconclusive [inhibitor, single point]",–
O=S(=O)(Nc1nc2n(n1)C(c1ccc(F)cc1)C=C(c1ccccc1)N2)c1ccccc1 (configuration not stated),"inconclusive [inhibitor, single point]",–
COc1ccc(CCc2ccc3cc(OC)ccc3n2)cc1,"inconclusive [inhibitor, single point]",–
COc1cccc(CNCC(O)COc2ccc(C(=O)c3ccccc3)cc2)c1 (configuration not stated),"inconclusive [inhibitor, partial curve]",–
CCOc1ccc(NC(=O)C2CCN(S(=O)(=O)c3c(C)noc3C)CC2)cc1,"inconclusive [inhibitor, full curve, poor fit]",–
Cc1ccccc1-c1ccc2ncnc(NC3CC3)c2c1,active: 16.4 µM,–
O=C(NN1C(=O)C2CCCCC2C1=O)c1ccco1 (configuration not stated),inactive,–
O=[N+]([O-])c1cccc(N=NNc2cccc([N+](=O)[O-])c2)c1,"inconclusive [inhibitor, single point]",–
CCc1[nH]nc(C(=O)N2CCCC(CO)(Cc3ccc(F)cc3F)C2)c1C (configuration not stated),"inconclusive [inhibitor, single point]",–
Cc1cccc(CSc2nnc([C@@H]3CCCN3C(=O)OC(C)(C)C)o2)c1,"inconclusive [inhibitor, single point]",–
CC(C)C(N)c1csc(NC(=O)Nc2cccc(Cl)c2)n1 (configuration not stated),"inconclusive [inhibitor, single point]",–
O=C(C1CC(=O)N(c2ccc3c(c2)OCCO3)C1)N1CCN(c2cccc(C(F)(F)F)c2)CC1 (configuration not stated),"inconclusive [inhibitor, single point]",–
CCc1ccc(CNC(=O)c2ccc(NC(=O)N3CC(C)Sc4ccccc43)cc2)cc1 (configuration not stated),active: 10.3 µM,–
NC(=O)C1CCN(c2c([N+](=O)[O-])cc(C(F)(F)F)cc2[N+](=O)[O-])CC1,inactive,–

SMILES,Potency,"activity change, negative = growth inhibition"
CCN(CC)c1ccc(S(=O)(=O)N2CCOCC2)cc1NC(=O)CN1C(=O)NC2(CCC(C)CC2)C1=O (configuration not stated),inactive,–
CCOC(=O)[C@H]1[C@H]2COc3ccc(C)cc3[C@@H]2N2C(=O)c3cc(Cl)ccc3NC(=O)[C@@]12C,"inconclusive [inhibitor, single point]",–
O=C(COc1ccc(Cl)cc1)NNC(=O)c1ccccc1C(=O)O,inactive,–
COC(=O)c1ccccc1NC(=O)CSc1nc2ccccc2nc1Cc1ccccc1OC,inactive,–
CC1(OC(=O)c2ccc(Cl)nc2)C(=O)C=C2C=C3CCCN3C=C2C1=O (configuration not stated),–,inconclusive: -36% [inhibitor]
Cc1cc(C)cc(C(=O)OCC(=O)NCc2cccs2)c1,"inconclusive [inhibitor, single point]",–
CSc1nc(N(C)NC(=O)c2cccc(C)c2)c2ccccc2n1,active: 0.0517 µM,–
O=C(NCc1ccccc1)c1onc(CS(=O)(=O)c2ccccn2)c1C(=O)NCc1ccccc1,"inconclusive [inhibitor, partial curve, poor fit]",–
CCOc1ccc(NC(=S)NN2C(C)CCCC2C)cc1 (configuration not stated),"inconclusive [inhibitor, single point]",–
COc1ccc(-c2ccc(CN3C(CC(C)C)C(=O)N(Cc4cn(CC5CCCCC5)nn4)CCS3(=O)=O)cc2)cn1 (configuration not stated),active: 20.6 µM,–
CCC1(C)Cc2ccccc2-c2nc(NCCCO)n(C)c(=O)c21 (configuration not stated),"inconclusive [inhibitor, single point]",–
CS(=O)(=O)Nc1cccc(-c2ccc3ncnc(Nc4ccccc4)c3c2)c1,"inconclusive [inhibitor, single point]",–
CCCCCc1c(-c2ccccc2)ncn1CCc1ccccc1OC,active: 23.1 µM,–
O=C(Nc1cc(-c2nc3ccccc3o2)ccc1Cl)c1ccc(N2CCCCC2)c([N+](=O)[O-])c1,"inconclusive [inhibitor, single point]",–
CCOc1cccc(CN2CCC(Oc3ccc(C(=O)NCc4ccccn4)cc3)CC2)c1,"inconclusive [inhibitor, single point]",–
C=CCN(C(=O)CSc1nc2ccsc2c(=O)n1Cc1ccc(C(=O)O)cc1)c1ccccc1,inactive,–
CCCCOc1ccc(C(=O)NCC(=O)NCc2ccccn2)cc1,–,inconclusive: -35.7% [inhibitor]
CCN(CC)S(=O)(=O)c1cccc2cc(C(=O)O)c(O)cc12,inactive,–
COc1ccc(/C=N/n2cncn2)cc1COc1ccc(NC(C)=O)cc1,"inconclusive [inhibitor, single point]",–
COC(=O)C1=C(C)N(Cc2ccccc2)C(=O)N[C@H]1c1ccccc1,"inconclusive [inhibitor, single point]",–
O=C(CCS(=O)(=O)c1cc(Br)cc2c1N(C(=O)C1CC1)CC2)NCc1ccc(Cl)cc1,"inconclusive [inhibitor, single point]",–
